The whole screen tested about 3,200 compounds, of which about 110 (3.4%) showed an effect of 50% or more. Some of the results follow.
What follows are compounds tested on T1, V. cholerae SAD30. Details: relative growth, OD600, LB; 25 µM; inhibitor.
T1 construct: SAD30
Parameters: species or system S. aureus MSSA476 (TSB) or V. cholerae SAD30 (LB); 384-well bacterial growth screen at 25 uM, OD600 relative to DMSO control

SMILES	% of control remaining
Cn1c(N)c(N2C(=O)C=CC2=O)c(=O)[nH]c1=O [10-P05, 6-amino-5-(2,5-dioxo-2,5-dihydro-1H-pyrrol-1-yl)-1-methyl-1,2,3,4-tetrahydropyrimidine-2,4-dione]	104.422%
C=CC(=O)NCc1ccc(N2CC(C)CS2(=O)=O)cc1 (centres unmarked) [3-J19, N-{[4-(4-methyl-1,1-dioxo-1lambda6,2-thiazolidin-2-yl)phenyl]methyl}prop-2-enamide]	89.4431%
O=C(NCc1ccco1)C1CCCN1C(=O)CCl (centres unmarked) [5-N05, 1-(2-chloroacetyl)-N-[(furan-2-yl)methyl]pyrrolidine-2-carboxamide]	104.403%
C=CC(=O)N(C)CC(=O)NC1CCCN(c2ccc(F)cc2F)C1=O (centres unmarked) [2-P22, N-({[1-(2,4-difluorophenyl)-2-oxopiperidin-3-yl]carbamoyl}methyl)-N-methylprop-2-enamide]	101.004%
C=CC(=O)NC(c1ccc(C)cc1)C(C)S(C)(=O)=O (centres unmarked) [2-A10, N-[2-methanesulfonyl-1-(4-methylphenyl)propyl]prop-2-enamide]	94.3646%
CNC(=O)c1cc(C(=O)CCl)cn1C [10-G10, 4-(2-chloroacetyl)-N,1-dimethyl-1H-pyrrole-2-carboxamide]	98.6558%
COCc1ncc2c(n1)CC1CCC2N1C(=O)C(C)Cl (centres unmarked) [7-M20, 2-chloro-1-[5-(methoxymethyl)-4,6,12-triazatricyclo[7.2.1.0,2,7]dodeca-2,4,6-trien-12-yl]propan-1-one]	81.4142%
CNC(=O)c1ccc(C2CCCCN2C(=O)C(C)Cl)n1C (centres unmarked) [7-N15, 5-[1-(2-chloropropanoyl)piperidin-2-yl]-N,1-dimethyl-1H-pyrrole-2-carboxamide]	80.0925%
CC(Cl)C(=O)Nc1sc2c(c1C#N)CCCCC2 (centres unmarked) [5-B20, 2-chloro-N-{3-cyano-4H,5H,6H,7H,8H-cyclohepta[b]thiophen-2-yl}propanamide]	96.8372%
C=CC(=O)N(CC)CC(=O)N1CC[S+]([O-])C(C)(C)CC1 (centres unmarked) [3-K21, N-[2-(7,7-dimethyl-1-oxo-1lambda4,4-thiazepan-4-yl)-2-oxoethyl]-N-ethylprop-2-enamide]	96.3242%
C=CC(=O)N1CCC(Cc2nc(C3CCC3)no2)CC1 [2-A06, 1-{4-[(3-cyclobutyl-1,2,4-oxadiazol-5-yl)methyl]piperidin-1-yl}prop-2-en-1-one]	98.0701%
CC(Cl)C(=O)Nc1sccc1C(N)=O (centres unmarked) [5-C21, 2-(2-chloropropanamido)thiophene-3-carboxamide]	107.429%
C=CC(=O)NCc1cc(C(F)(F)F)on1 [3-F20, N-{[5-(trifluoromethyl)-1,2-oxazol-3-yl]methyl}prop-2-enamide]	95.0891%
C=CC(=O)N1CCC(C(=O)NCc2cc(C)c[nH]c2=O)CC1 [3-H03, N-[(5-methyl-2-oxo-1,2-dihydropyridin-3-yl)methyl]-1-(prop-2-enoyl)piperidine-4-carboxamide]	105.852%
COc1ccc(C=C(C#N)C(=O)NC2CCCCC2)cc1O [8-H13, 2-cyano-N-cyclohexyl-3-(3-hydroxy-4-methoxyphenyl)prop-2-enamide]	79.3338%
C=CC(=O)N1CCOC(CNC(=O)NC)C1 (centres unmarked) [3-A18, 3-methyl-1-{[4-(prop-2-enoyl)morpholin-2-yl]methyl}urea]	118.732%
CC(Cl)C(=O)NCCC1=CCCCCC1 (centres unmarked) [5-N19, 2-chloro-N-[2-(cyclohept-1-en-1-yl)ethyl]propanamide]	88.2631%
C=CC(=O)NCC(F)(F)C1(OC)CCC1 [3-L07, N-[2,2-difluoro-2-(1-methoxycyclobutyl)ethyl]prop-2-enamide]	91.9133%
Cc1nn(CC(C)C)c(Cl)c1C1CCCN1C(=O)C(C)Cl (centres unmarked) [7-P19, 2-chloro-1-{2-[5-chloro-3-methyl-1-(2-methylpropyl)-1H-pyrazol-4-yl]pyrrolidin-1-yl}propan-1-one]	86.04%
CC(Cl)C(=O)NC(=O)Nc1ccccc1 (centres unmarked) [5-I21, 3-(2-chloropropanoyl)-1-phenylurea]	104.066%
C=CCNC(=O)C(C#N)=Cc1cccc2ccccc12 [9-L10, 2-cyano-3-(naphthalen-1-yl)-N-(prop-2-en-1-yl)prop-2-enamide]	88.3073%
C=CC(=O)N1CCC(C(=O)NC[C@H]2C[C@@H](O)C2)(c2ccccc2)CC1 [3-O04, 4-phenyl-1-(prop-2-enoyl)-N-{[(1s,3s)-3-hydroxycyclobutyl]methyl}piperidine-4-carboxamide]	105.852%

SMILES	% of control remaining
CCCc1ccc(C(=O)CCl)cc1 [10-C04, 2-chloro-1-(4-propylphenyl)ethan-1-one]	109.254%
N#CC(=Cc1ccc2c(c1)OCO2)C(=O)NCc1ccccc1 [8-A09, 3-(1,3-dioxaindan-5-yl)-N-benzyl-2-cyanoprop-2-enamide]	89.395%
CN(C)C(=O)c1csc(C(=O)CCl)c1 [10-I07, 5-(2-chloroacetyl)-N,N-dimethylthiophene-3-carboxamide]	105.981%
Cc1cc(C=C(C#N)C(=O)NCc2ccco2)cc(C)c1O [8-J16, 2-cyano-N-[(furan-2-yl)methyl]-3-(4-hydroxy-3,5-dimethylphenyl)prop-2-enamide]	66.5534%
N#Cc1nc(-c2ccco2)oc1N1CCN(C(=O)CCl)CC1 [4-B22, 5-[4-(2-chloroacetyl)piperazin-1-yl]-2-(furan-2-yl)-1,3-oxazole-4-carbonitrile]	116.11%
CC1CCCCC1OCCNC(=O)CCl (centres unmarked) [6-O06, 2-chloro-N-{2-[(2-methylcyclohexyl)oxy]ethyl}acetamide]	94.189%
C=CC(=O)NCc1cccc(OC)n1 [1-H22, N-[(6-methoxypyridin-2-yl)methyl]prop-2-enamide]	111.629%
C=CC(=O)NC[C@H]1CCCN1S(C)(=O)=O [1-H07, N-{[(2R)-1-methanesulfonylpyrrolidin-2-yl]methyl}prop-2-enamide]	87.7429%
Cc1ccc(SCCNC(=O)CCl)cc1 [4-K21, 2-chloro-N-{2-[(4-methylphenyl)sulfanyl]ethyl}acetamide]	111.279%
C=CC(=O)N1CCC(C(=O)Nc2cnn(COC)c2)CC1 [2-H10, N-[1-(methoxymethyl)-1H-pyrazol-4-yl]-1-(prop-2-enoyl)piperidine-4-carboxamide]	88.1887%
CC(Cl)C(=O)Nc1cc(Cl)cc(Cl)c1 (centres unmarked) [4-D17, 2-chloro-N-(3,5-dichlorophenyl)propanamide]	56.0707%
C=CC(=O)N1CCC(C(=O)N(C)Cc2ccc([S+](C)[O-])cc2)CC1 (centres unmarked) [2-D06, N-[(4-methanesulfinylphenyl)methyl]-N-methyl-1-(prop-2-enoyl)piperidine-4-carboxamide]	92.0486%
CC(NC(=O)CCl)c1nc2c(s1)CCCCC2 (centres unmarked) [7-M22, 2-chloro-N-(1-{4H,5H,6H,7H,8H-cyclohepta[d][1,3]thiazol-2-yl}ethyl)acetamide]	92.1196%
Cc1cc(CNC(=O)C(C#N)=Cc2ccco2)ccc1N(C)C [9-N09, 2-cyano-N-{[4-(dimethylamino)-3-methylphenyl]methyl}-3-(furan-2-yl)prop-2-enamide]	72.8076%
C=CC(=O)N1CCC(Cc2nccs2)C1 (centres unmarked) [3-O16, 1-{3-[(1,3-thiazol-2-yl)methyl]pyrrolidin-1-yl}prop-2-en-1-one]	102.147%
N#Cc1cccc(NC2CCN(C(=O)CCl)C2)c1 (centres unmarked) [5-I22, 3-{[1-(2-chloroacetyl)pyrrolidin-3-yl]amino}benzonitrile]	111.464%
C=CC(=O)NCC1SCCS1 [1-C03, N-[(1,3-dithiolan-2-yl)methyl]prop-2-enamide]	105.232%
COc1ccccc1NC(=O)C(C#N)=Cc1ccc(C)s1 [8-B15, 2-cyano-N-(2-methoxyphenyl)-3-(5-methylthiophen-2-yl)prop-2-enamide]	79.4697%
CC(=O)N(c1ccccc1)c1nc(C=C(C#N)C(=O)NC2CC2)cs1 [9-A12, 2-cyano-N-cyclopropyl-3-[2-(N-phenylacetamido)-1,3-thiazol-4-yl]prop-2-enamide]	92.6581%
Cc1cccc(N2C(=O)C=CC2=O)c1C [10-H05, 1-(2,3-dimethylphenyl)-2,5-dihydro-1H-pyrrole-2,5-dione]	27.1186%
O=C(CCl)NC(c1ccccc1)c1nccs1 (centres unmarked) [5-M13, 2-chloro-N-[phenyl(1,3-thiazol-2-yl)methyl]acetamide]	96.8372%
CC(Cl)C(=O)N1Cc2ccccc2N(C)C[C@@H]1C (stereo partly drawn) [5-F15, 2-chloro-1-[(3S)-1,3-dimethyl-2,3,4,5-tetrahydro-1H-1,4-benzodiazepin-4-yl]propan-1-one]	88.7675%
